# Molecular target: CXC chemokine receptor 4 (CXCR4) on THP-1 cells (UniProt P61073 1-352, limits assumed)
# Test: cell-based or functional assay
# Chain of UniProt P61073 (P61073 whole entry): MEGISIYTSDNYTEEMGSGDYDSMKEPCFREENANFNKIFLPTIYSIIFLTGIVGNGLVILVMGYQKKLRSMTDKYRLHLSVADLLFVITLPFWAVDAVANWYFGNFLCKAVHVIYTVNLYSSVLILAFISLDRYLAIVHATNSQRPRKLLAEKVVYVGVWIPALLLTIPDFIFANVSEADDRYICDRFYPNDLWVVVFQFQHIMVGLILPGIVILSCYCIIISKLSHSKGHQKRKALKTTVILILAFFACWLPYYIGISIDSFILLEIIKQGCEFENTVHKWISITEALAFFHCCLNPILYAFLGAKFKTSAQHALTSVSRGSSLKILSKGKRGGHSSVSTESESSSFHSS
binder,measurement,value
CXCL12-α2 (L36C/A65C) locked dimer polypeptide (ligand) not shown,"EC50, CXCR4 activation, Ca2+-flux in THP-1 cells",12.9 nM
same,"IC50, inhibition of THP-1 chemotaxis induced by wild-type CXCL12-α (10 nM)",~4 nM
